# From the supplement of paper PMC8728848
# Some of the results follow.
# B1: Siglec-7-SA-PE-180 (Homo sapiens), Q9Y286 (protein)
# chain: MLLLLLLPLLWGRERVEGQKSNRKDYSLTMQSSVTVQEGMCVHVRCSFSYPVDSQTDSDPVHGYWFRAGNDISWKAPVATNNPAWAVQEETRDRFHLLGDPQTKNCTLSIRDARMSDAGRYFFRMEKGNIKWNYKYDQLSVNVTALTHRPNILIPGTLESGCFQNLTCSVPWACEQGTPPMISWMGTSVSPLHPSTTRSSVLTLIPQPQHHGTSLTCQVTLPGAGVTTNRTIQLNVSYPPQNLTVTVFQGEGTASTALGNSSSLSVLEGQSLRLVCAVDSNPPARLSWTWRSLTLYPSQPSNPLVLELQVHLGDEGEFTCRAQNSLGSQHVSLNLSLQQEYTGKMRPVSGVLLGAVGGAGATALVFLSFCVIFIVVRSCRKKSARPAADVGDIGMKDANTIRGSASQGNLTESWADDNPRHHGLAAHSSGEEREIQYAPLSFHKGEPQDLSGQEATNNEYSEIKIPK
# Experiments:
# Experiment in all cases: glycan array binding signal (z-score within array); higher = stronger binding
# Settings in all cases: glycan notation: IUPAC condensed, linker removed
# Neu5Ac(a2-3)Gal(b1-4)Glc = biological target: Neu5Ac(a2-3)Gal(b1-4)Glc
# Summary of the method: (§1)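 From the Consortium for Functional Glycomics database, 3228 arrays were curated, keeping only those whose protein sequence was available. Binding is given as a within-array Z-score averaged across arrays sharing a protein sequence and across linkers. Negative Z-scores can be read as non-binding.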
# [1] = biological target: Neu5Ac(a2-3)Gal(b1-4)GlcNAc
# Summary of the method: as §1
# [2] = biological target: Neu5Ac(a2-3)Gal(b1-4)GlcNAc(b1-2)Man
# Summary of the method: as §1
# [3] = biological target: Neu5Ac(a2-3)Gal(b1-4)GlcNAc(b1-2)Man(a1-3)[GlcNAc(b1-2)Man(b1-4)GlcNAc(b1-2)Man(a1-6)]Man(b1-4)GlcNAc(b1-4)GlcNAc
# Summary of the method: as §1
# [4] = biological target: Neu5Ac(a2-3)Gal(b1-4)GlcNAc(b1-2)Man(a1-3)[GlcNAc(b1-4)][Neu5Ac(a2-3)Gal(b1-4)GlcNAc(b1-2)Man(a1-6)]Man(b1-4)GlcNAc(b1-4)GlcNAc
# Summary of the method: as §1
# [5] = biological target: Neu5Ac(a2-3)Gal(b1-4)GlcNAc(b1-2)Man(a1-3)[Neu5Ac(a2-3)Gal(b1-4)GlcNAc(b1-2)Man(a1-6)]Man(b1-4)GlcNAc(b1-4)GlcNAc
# Summary of the method: as §1
# [6] = biological target: Neu5Ac(a2-3)Gal(b1-4)GlcNAc(b1-2)Man(a1-3)[Neu5Ac(a2-3)Gal(b1-4)GlcNAc(b1-2)Man(a1-6)]Man(b1-4)GlcNAc(b1-4)[Fuc(a1-6)]GlcNAc
# Summary of the method: as §1
# [7] = biological target: Neu5Ac(a2-3)Gal(b1-4)GlcNAc(b1-2)Man(a1-3)[Neu5Ac(a2-6)Gal(b1-4)GlcNAc(b1-2)Man(a1-6)]Man(b1-4)GlcNAc(b1-4)GlcNAc
# Summary of the method: as §1
# [8] = biological target: Neu5Ac(a2-3)Gal(b1-4)GlcNAc(b1-2)[Neu5Ac(a2-3)Gal(b1-4)GlcNAc(b1-4)]Man(a1-3)[GlcNAc(b1-4)][Neu5Ac(a2-3)Gal(b1-4)GlcNAc(b1-2)[Neu5Ac(a2-3)Gal(b1-4)GlcNAc(b1-6)]Man(a1-6)]Man(b1-4)GlcNAc(b1-4)GlcNAc
# Summary of the method: as §1
# [9] = biological target: Neu5Ac(a2-3)Gal(b1-4)GlcNAc(b1-2)[Neu5Ac(a2-3)Gal(b1-4)GlcNAc(b1-4)]Man(a1-3)[GlcNAc(b1-4)][Neu5Ac(a2-3)Gal(b1-4)GlcNAc(b1-4)Man(a1-6)]Man(b1-4)GlcNAc(b1-4)GlcNAc
# Summary of the method: as §1
# [10] = biological target: Neu5Ac(a2-3)Gal(b1-4)GlcNAc(b1-2)[Neu5Ac(a2-3)Gal(b1-4)GlcNAc(b1-6)]Man(a1-6)[Neu5Ac(a2-3)Gal(b1-4)GlcNAc(b1-2)Man(a1-3)]Man(b1-4)GlcNAc(b1-4)GlcNAc
# Summary of the method: as §1
# [11] = biological target: Neu5Ac(a2-3)Gal(b1-4)GlcNAc(b1-2)[Neu5Ac(a2-3)Gal(b1-4)GlcNAc(b1-6)]Man(a1-6)[Neu5Ac(a2-3)Gal(b1-4)GlcNAc(b1-2)Man(a1-3)][GlcNAc(b1-4)]Man(b1-4)GlcNAc(b1-4)GlcNAc
# Summary of the method: as §1
# [12] = biological target: Neu5Ac(a2-3)Gal(b1-4)GlcNAc(b1-3)Gal
# Summary of the method: as §1
# [13] = biological target: Neu5Ac(a2-3)Gal(b1-4)GlcNAc(b1-3)Gal(b1-3)GlcNAc
# Summary of the method: as §1
# [14] = biological target: Neu5Ac(a2-3)Gal(b1-4)GlcNAc(b1-3)Gal(b1-4)GlcNAc
# Summary of the method: as §1
# [15] = biological target: Neu5Ac(a2-3)Gal(b1-4)GlcNAc(b1-3)Gal(b1-4)GlcNAc(b1-2)Man(a1-3)[Neu5Ac(a2-3)Gal(b1-4)GlcNAc(b1-3)Gal(b1-4)GlcNAc(b1-2)Man(a1-6)]Man(b1-4)GlcNAc(b1-4)GlcNAc
# Summary of the method: as §1
# [16] = biological target: Neu5Ac(a2-3)Gal(b1-4)GlcNAc(b1-3)Gal(b1-4)GlcNAc(b1-3)Gal(b1-4)GlcNAc
# Summary of the method: as §1
# [17] = biological target: Neu5Ac(a2-3)Gal(b1-4)GlcNAc(b1-3)Gal(b1-4)GlcNAc(b1-3)Gal(b1-4)GlcNAc(b1-2)Man(a1-3)[Neu5Ac(a2-3)Gal(b1-4)GlcNAc(b1-3)Gal(b1-4)GlcNAc(b1-3)Gal(b1-4)GlcNAc(b1-2)Man(a1-6)]GalNAc
# Summary of the method: as §1
# [18] = biological target: Neu5Ac(a2-3)Gal(b1-4)GlcNAc(b1-3)Gal(b1-4)GlcNAc(b1-3)GalNAc
# Summary of the method: as §1
# [19] = biological target: Neu5Ac(a2-3)Gal(b1-4)GlcNAc(b1-3)Gal(b1-4)GlcNAc(b1-3)[Neu5Ac(a2-3)Gal(b1-4)GlcNAc(b1-3)Gal(b1-4)GlcNAc(b1-6)]GalNAc
# Summary of the method: as §1
# [20] = biological target: Neu5Ac(a2-3)Gal(b1-4)GlcNAc(b1-3)Gal(b1-4)GlcNAc(b1-6)[Gal(b1-3)]GalNAc
# Summary of the method: as §1
# [21] = biological target: Neu5Ac(a2-3)Gal(b1-4)GlcNAc(b1-3)Gal(b1-4)[Fuc(a1-3)]GlcNAc
# Summary of the method: as §1
# [22] = biological target: Neu5Ac(a2-3)Gal(b1-4)GlcNAc(b1-3)GalNAc
# Summary of the method: as §1
# [23] = biological target: Neu5Ac(a2-3)Gal(b1-4)GlcNAc(b1-3)[Neu5Ac(a2-3)Gal(b1-4)GlcNAc(b1-6)]GalNAc
# Summary of the method: as §1
# [24] = biological target: Neu5Ac(a2-3)Gal(b1-4)GlcNAc(b1-6)GalNAc
# Summary of the method: as §1
# [25] = biological target: Neu5Ac(a2-3)Gal(b1-4)GlcNAc(b1-6)[Gal(b1-3)]GalNAc
# Summary of the method: as §1
# [26] = biological target: Neu5Ac(a2-3)Gal(b1-4)GlcNAc(b1-6)[Neu5Ac(a2-3)Gal(b1-3)]GalNAc
# Summary of the method: as §1
# [27] = biological target: Neu5Ac(a2-3)Gal(b1-4)GlcNAc6S
# Summary of the method: as §1
# [28] = biological target: Neu5Ac(a2-3)Gal(b1-4)[Fuc(a1-3)]GlcNAc
# Summary of the method: as §1
binder,measurement,setting,value
B1,glycan array binding signal (z-score),Neu5Ac(a2-3)Gal(b1-4)Glc,0.175
same,glycan array binding signal (z-score),[1],0.212
same,glycan array binding signal (z-score),[2],0.263
same,glycan array binding signal (z-score),[3],-0.013
same,glycan array binding signal (z-score),[4],-0.201
same,glycan array binding signal (z-score),[5],-0.21
same,glycan array binding signal (z-score),[6],-0.092
same,glycan array binding signal (z-score),[7],-0.227
same,glycan array binding signal (z-score),[8],-0.246
same,glycan array binding signal (z-score),[9],-0.188
same,glycan array binding signal (z-score),[10],-0.042
same,glycan array binding signal (z-score),[11],-0.519
same,glycan array binding signal (z-score),[12],-0.132
same,glycan array binding signal (z-score),[13],-0.181
same,glycan array binding signal (z-score),[14],0.066
same,glycan array binding signal (z-score),[15],0.575
same,glycan array binding signal (z-score),[16],-0.255
same,glycan array binding signal (z-score),[17],0.612
same,glycan array binding signal (z-score),[18],0.095
same,glycan array binding signal (z-score),[19],-0.031
same,glycan array binding signal (z-score),[20],-0.64
same,glycan array binding signal (z-score),[21],-0.115
same,glycan array binding signal (z-score),[22],-0.316
same,glycan array binding signal (z-score),[23],-0.214
same,glycan array binding signal (z-score),[24],-0.257
same,glycan array binding signal (z-score),[25],-0.321
same,glycan array binding signal (z-score),[26],-0.035
same,glycan array binding signal (z-score),[27],4.5
same,glycan array binding signal (z-score),[28],-0.125
